Results reported in ChEMBL document CHEMBL4888484, “Replenishing the malaria drug discovery pipeline: Screening and hit evaluation of the MMV Hit Generation Library 1 (HGL1) against asexual blood stage Plasmodium falciparum ,using a nano luciferase reporter read-out” (2022).
Hit rate of the full screen: of about 150,000 compounds, about 540 (0.36%) showed an effect of 50% or more. Some of the results follow.

tested on: Plasmodium falciparum; assay: Primary screen in NF54 nanoGlo assay, in single point, at 2uM, 72h; a lower Z score goes with more inhibition; type: functional, Erythrocyte; settings: timepoint 72 hour

SMILES	% Inhibition [%]	Z score
CC1CCN(C(=O)c2csc3c2CCCC3)CC1	7	-1.16
CCOCc1nc(C)cc(N2CCc3c(cnn3-c3ccccc3)C2)n1	-3	0.49
O=C(Nc1cnn(C[C@H]2COc3ccccc3O2)c1)c1ccco1	14	-1.74
Cc1cc(C(=O)NCc2ccco2)on1	-8	1.27
O=C(CCC1CCCC1)Nc1nc(-c2ccc3c(c2)COC3)cs1	-7	0.7
CCN(C(=O)c1nnn(C(C)C)c1C)[C@@H](CO)c1ccccc1	-9	1.82
Cc1cccc(NC(=O)N2C3CCC2CC(O)C3)n1 (stereo not drawn)	-12	1
COc1ccc(C(=O)N2CCCCCCN(C)C(=O)[C@@H]3CCC[C@@H]32)cn1	-8	1.08
C=CCc1cc(C(=O)NCC)ccc1OC	-8	0.7
Cc1cnc(CCNC(=O)c2nn(-c3cccc(F)c3)cc2O)s1	1	-0.17
CC1CN(c2ncc(S(N)(=O)=O)s2)C(C)C(C)O1 (stereo not drawn)	-1	0.22
Cc1ccc(S(=O)(=O)N2C(=O)CC[C@H]2C(=O)N2CCCCCC2)cc1C	-12	1.58
C[C@@]1(CCc2ccc(OC(F)F)cc2)NC(=O)N(Cc2coc(-c3cccs3)n2)C1=O	-10	1.87
Cc1nn(C(C)(C)C)cc1C(=O)NCC1(O)CCCCCC1	-6	0.86
Cc1ccccc1NC(=O)Cc1nc(C)c(C(=O)NCc2ccccc2)s1	10	-1.28
Cc1nnc([C@H](C)S(=O)(=O)CCCC(C)C)o1	2	-0.24
CCc1noc(C)c1COc1cccc2c1[C@@H](O)CC(C)(C)O2	-13	1.57
CCN(C(=O)c1cccc(CNc2ccncn2)c1)C1CCCCC1	-13	2.01
Cc1ccc(C)c(S(=O)(=O)Nc2cc(NC(=O)c3cnoc3C)ccc2Cl)c1	16	-2.12
NC(=O)[C@@H]1CC(C(=O)Nc2cc[nH]n2)=NN1c1ccccc1	-9	0.84
CC(C)c1ccc(C#N)c(NC[C@H](O)CN(C)C)n1	-9	1.75

SMILES	% Inhibition [%]	Z score
COC(=O)C(C)C(NCC(N)=O)c1ccccc1 (stereo not drawn)	9	-1.2
CCc1ccc(C(=O)CCC(=O)N[C@@H](C)CS(C)(=O)=O)cc1	-11	0.94
Cn1ncc2c(=O)[nH]c(CN3CCN(c4ccc(O)cc4)CC3)nc21	-3	0.66
CC(=O)c1ccc(S(=O)(=O)N2CCOc3ccc(C(=O)N4CCOCC4)cc3C2)cc1	1	-0.17
COc1cccn2ncc(C(=O)N3CCO[C@H]4CCC[C@H]43)c12	-8	1.34
COc1ccc(N2C(=O)CN(Cc3ccc4c(c3)OCO4)[C@H]3CS(=O)(=O)C[C@H]32)cc1Cl	-1	0.17
CCCn1nc(C2CCOCC2)nc1-c1ccnc(NC)c1	-25	3.81
COC(=O)c1ccc(O)c(NC(=O)c2cc3n(n2)CCO3)c1	-33	6.02
CN(Cc1noc(C2CC2)n1)[C@H]1CCc2ccccc2C1	0	0.02
CC(C)c1ccc(S(=O)(=O)c2c(C(=O)N3CCCCC3)cnc3ccc(F)cc23)cc1	-16	1.52
Cc1csc([C@@H](C)CNC(=O)c2cc(=O)cc(C)n2C)n1	-13	1.65
CCc1nnc2n1C[C@@H](CNCc1ccc3c(c1)CCO3)CC2	-9	1.33
CCc1ccccc1C(N)CNC(=O)N1CCCC(C2CCCCO2)C1 (stereo not drawn)	-3	0.29
COc1ccc(S(=O)(=O)Cc2nnnn2-c2ccccc2)cc1	-3	0.4
CCN(Cc1nc2ccccc2c(=O)[nH]1)C(=O)c1cccc(-n2cnnn2)c1	-4	0.42
NC12CCCC1CN(C(=O)Cc1cccc(C(F)(F)F)n1)C2 (stereo not drawn)	3	-0.57
Cc1nn(Cc2cc(-c3ccccc3)on2)c(=O)c(C#N)c1C	-6	0.83
Cc1ccc(-c2nc(-c3ccc(C(=O)NCc4ccc(OC(C)C)cc4)s3)no2)cc1	-11	1.44
CCN(CC)[C@@]1(c2nnnn2C2CCCC2)CCN(C(=O)C2CCC2)C1	-9	1.23
CCOc1ccccc1CN1CCN(CC2CC2)[C@@H]2CS(=O)(=O)C[C@@H]21	-7	1.28
CC(C)(C)OC(=O)N1C[C@H](NCc2ccco2)C2(CCOCC2)C1	0	0.02

SMILES	% Inhibition [%]	Z score
C[C@H](Nc1nc(N(C)C)nc2ccccc12)c1ccccc1	-5	0.67
O=C(O)C1CCC(Nc2ccc(N3CCCCC3)cn2)CC1 (stereo not drawn)	-8	1.02
Fc1ccc(OCc2csc(-c3ncccn3)n2)c(F)c1	3	-0.51
C=CCCC(=O)NCCCn1ccc2cccnc21	-13	1.94
O=C(Cn1cncn1)N[C@@H](Cc1ccc(Cl)cc1)c1ccccc1	-10	0.89
CCO[C@H]1OCCn2c1c(Br)c(=O)n(C)c2=O	32	-4.14
O=C(c1ccccc1-n1cnnc1)N(Cc1ccccn1)C1CCCCC1	0	0.02
Cn1cccc(C(=O)N2C3CCC2CC(F)C3)c1=O (stereo not drawn)	-6	0.94
CC(C)(C)C(=O)NCCn1ccn2nccc12	-12	1.55
COc1ccc(C(=O)N2CC[C@H](n3cnc4ccccc43)C2)c(C)c1	-16	2.16
O=C1N(c2cccc(F)c2)c2ncccc2S(=O)(=O)N1Cc1cccc(F)c1	-21	2.08
CCN(CCOc1cccc(Cl)c1)C(=O)c1cc(C)nn1C	-1	0.09
CC(=O)Nc1ccc(S(=O)(=O)Nc2noc3ccccc23)cc1	-16	1.83
CCOc1ccc(NC(=O)CC2CCN(S(=O)(=O)c3ccc4c(c3)CCN4C(C)=O)CC2)cc1	-11	1.04
COc1ccc(Cn2cc([C@H](CC(N)=O)c3cc(C)ccc3F)c3ccccc32)cc1	-7	0.71
Cn1nc(CN(Cc2ccco2)C(=O)C(C)(C)Oc2ccc(Cl)cc2)cc1C1CC1	-14	2.73
OC[C@@H](O)CN(CCN1CCOCC1)CCC(F)(F)F	-7	0.85
Cc1ccc(Cl)cc1NC(=O)[C@H](C)OC(=O)CCC(=O)Nc1nnc(C(C)C)s1	-2	0.28
C[C@H]1COc2ccc(C(=O)NCc3ncccc3F)cc21	1	-0.18
CC(C)[C@@H](CO)NC(=O)c1sncc1Br	3	-0.54
O=C(c1cccc(C(=O)N2CCN(C(c3ccccc3)c3ccccc3)CC2)c1)N1CCN(C(c2ccccc2)c2ccccc2)CC1	54	-11.5

SMILES	% Inhibition [%]	Z score
c1ccn2cc(CN3CCC(n4ccnc4)CC3)nc2c1	-2	0.24
COC(=O)c1cnc2c(c1)n(Cc1cn(C)nc1C)c(=O)n2C1CCCCC1	-3	0.44
O=C(c1nc2ccccn2c1CN1CCC([C@H](O)c2cccs2)CC1)N1CCCC1	-8	1.17
Cc1csc(N2CCC(NC(C)CC(O)c3ccccc3)CC2)n1 (stereo not drawn)	-6	0.81
CCc1csc(CNC(=O)c2ccc(N3Cc4cnn(CCO)c4C3)nc2)n1	-10	1.55
C#CCOC[C@@H](O)CN(CCOC)Cc1cc(C)ccc1C	-12	1.85
COc1cc(OC)cc(C2=NC3(CCCC3)NC2=O)c1	0	-0.05
O=C(Cn1cnnn1)Nc1ccc(N2CCOCC2)cc1	-13	1.79
Cc1nc(OCC(=O)NCc2cccnc2)c2c(-c3cccc(F)c3)noc2n1	6	-0.89
COC(=O)c1ccccc1N(C)C(=O)COC(=O)[C@@](C)(O)CN1Cc2ccccc2C1=O	-11	1.54
c1ccc(-c2noc(CCN3CCOC[C@H]3c3nc[nH]n3)n2)cc1	-3	0.58
CC(C)[C@@H]1CN(C(=O)c2cnccn2)CCCN1CC1CC1	0	0.04
CC1CC(CNC(=O)c2cc(-c3cccnc3)nn2C)C1 (stereo not drawn)	-5	0.95
Cc1ccc2cccc(-n3ccnc3-c3cn(C4CCNCC4)nn3)c2n1	-8	1.07
C[C@]1(c2ccccc2)CCCN(C(=O)c2cn(CCN3CCNCC3)nn2)C1	6	-1.18
Cc1nc2n(n1)CCCC2NC(C)C1CCCN1C(=O)OC(C)(C)C (stereo not drawn)	-4	0.46
CCNC(=O)[C@H](C)NS(=O)(=O)C1CN(C(=O)OC(C)(C)C)C1	3	-0.39
COc1ccc([C@@]2(C)NC(=O)N(CC(=O)N3CC(=O)Nc4ccccc43)C2=O)cc1OC	43	-5.54
CCN1CC(C)C(NS(=O)(=O)c2ccc3c(c2)OCCO3)C1 (stereo not drawn)	-8	1.07
O=C1O[C@H](C(=O)Nc2nc3ccc(F)cc3s2)Cc2ccccc21	4	-0.45
O=C1C2C3CCC(C3)C2C(=O)N1c1ccc(Oc2ccc(Cl)cc2Cl)cc1 (stereo not drawn)	-8	0.99
